Inconclusive results, whose numbers are uncertain, are shown with a selection of clear calls. For some assays here: Potencies of inconclusive entries are doubtful fits and often do not repeat. A structure can be active in one record and inactive in another. The source made the active and inactive calls. Unless noted, the call rests on the fitted dose curve; in most records, active means well fitted curve in the direction sought with a large enough effect in the repeat runs; inconclusive means weak or mixed curves; inactive means no such curve, though single readings can be large; an effect the other way counts as inactive or inconclusive.
Legend:
[1] = qHTS assay to identify small molecule antagonists of the progesterone receptor (PR) signaling pathway - cell viability counter screen (AID 1346798); further: nearly all actives have a fitted effect of over 50% in size; further: potency means the concentration at half of the fitted maximal effect
In short: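 PR-UAS-bla HEK293T cells in medium with 2% charcoal-stripped FBS were treated with compounds plus R5020 for 16 hr at 37C. Cell viability was then read by CellTiter-Glo luminescence after 30 min at room temperature in the same wells.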

[2] = qHTS assay to identify small molecule agonists of the progesterone receptor (PR) signaling pathway - cell viability counter screen (AID 1346799; calls by dose curve; further: nearly all actives have a fitted effect of over 45% in size; further: potency means the concentration at half of the fitted maximal effect)
In short: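 PR-UAS-bla HEK293T cells, 3,000 per well in medium with 2% charcoal-stripped FBS, were preincubated 6 hr at 37C, then exposed to compounds for 16 hr; viability was read as CellTiter-Glo luminescence after 30 min at room temperature.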

[3] = target: Progesterone receptor (Homo sapiens) (UniProt P06401); assay: qHTS assay to identify small molecule antagonists of the progesterone receptor (PR) signaling pathway (AID 1346795; active means well fitted inhibition curve with a large enough effect in the signal ratio in the repeat runs, not every such curve was filed as active; inconclusive means weak or mixed curves; the % refers to the signal ratio; further: potency means the concentration at half of the fitted maximal effect; on activity change, negative = inhibition: on the % scale 0 is the no-effect control and ±100 the full control effect); conditions: PR-UAS-bla HEK293T, beta-lactamase FRET ratio, 16 h; activity change, negative = inhibition: at 92.4 µM (top of the series) unless noted
In short: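 PR-UAS-bla HEK293T cells carrying a UAS-driven beta-lactamase reporter were plated in medium with 2% charcoal-stripped FBS and rested 6 hr at 37C. Compounds were added with 1 nM R5020 (final) for 16 hr, then FRET substrate loaded 2 hr at room temperature.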

[4] = qHTS assay to identify small molecule antagonists of the TGF-beta/Smad signaling pathway - cell viability counter screen (AID 1346824); further: nearly all actives have a fitted effect of over 50% in size; further: potency means the concentration at half of the fitted maximal effect
In short: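 SBE-bla HEK 293T cells were plated overnight at 37 C, then given compounds in DMSO plus TGF-beta1 (added as 0.25 ng/mL solution) for 5 hr. After the bla read, CellTiter-Glo was added to the same wells and luminescence read after 30 min at room temperature.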

[5] = qHTS assay to identify small molecule agonists of the TGF-beta/Smad signaling pathway - cell viability counter screen (AID 1346829); further: nearly all actives have a fitted effect of over 45% in size; further: potency means the concentration at half of the fitted maximal effect
In short: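 HEK 293T SBE-bla line, 5 hr compound exposure at 37 C, multiplexed CellTiter-Glo viability read by luminescence.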

[6] = target: Thyrotropin-releasing hormone receptor (Homo sapiens) (UniProt P34981); assay: qHTS assay to identify small molecule antagonists of the thyrotropin-releasing hormone receptor (TRHR) signaling pathway (AID 1346877; active means well fitted inhibition curve with a large enough effect in the repeat runs, not every such curve was filed as active; inconclusive means weak or mixed curves; further: potency means the concentration at half of the fitted maximal effect)
In short: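 In this cell-based calcium flux format, HEK293 cells expressing TRHR received test compound for 5 min before the agonist TRH (1 nM final). Dye loading lasted 2 h at 37 °C.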

[7] = target: Thyrotropin-releasing hormone receptor (Homo sapiens) (UniProt P34981); assay: qHTS assay to identify small molecule agonists of the thyrotropin-releasing hormone receptor (TRHR) signaling pathway (AID 1346891; calls by dose curve; further: potency means the concentration at half of the fitted maximal effect)
In short: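 TRHR-expressing HEK293 cells were plated 18 h at 37 °C/5% CO2, loaded with calcium dye 2 h at 37 °C, then given compound in DMSO; fluorescence was read kinetically for 3 min at 1 s intervals.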

[8] = qHTS assay to identify small molecule antagonists of the TGF-beta/Smad signaling pathway (AID 1346924; active means well fitted inhibition curve with a large enough effect in the signal ratio in the repeat runs, not every such curve was filed as active; inconclusive means weak or mixed curves; the % refers to the signal ratio); conditions: SBE-bla HEK293T, TGF-beta/Smad reporter, beta-lactamase ratio; activity, negative = inhibition: at 76.8 µM (top of the series) unless noted
In short: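 SBE-bla HEK 293T cells were plated overnight, then received compound in DMSO plus TGF-beta1 (added as a 0.25 ng/mL solution) and were incubated 5 h at 37 C. Beta-lactamase reporter activity was read after 2 h at room temperature with LiveBLAzer B/G FRET substrate (ex 405, em 460/530 nm).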

[9] = qHTS assay to identify small molecule agonists of the TGF-beta/Smad signaling pathway (AID 1346859; active means well fitted activation curve with a large enough effect in the signal ratio in the repeat runs, not every such curve was filed as active; inconclusive means weak or mixed curves; the % refers to the signal ratio; further: potency means the concentration at half of the fitted maximal effect); conditions: SBE-bla HEK293T, TGF-beta/Smad beta-lactamase reporter, 5 h; activation: at 76.8 µM (top of the series) unless noted
In short: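 HEK 293T cells stably carrying a beta-lactamase reporter driven by the Smad binding element were seeded overnight, exposed to DMSO-dissolved compounds for 5 hr at 37 C, 5% CO2, then loaded with FRET substrate for 2 hr at room temperature.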
Tags describe the fitted curve by direction and shape or compound fluorescence and quenching.

Chain of UniProt P06401 (P06401 whole entry, looked up): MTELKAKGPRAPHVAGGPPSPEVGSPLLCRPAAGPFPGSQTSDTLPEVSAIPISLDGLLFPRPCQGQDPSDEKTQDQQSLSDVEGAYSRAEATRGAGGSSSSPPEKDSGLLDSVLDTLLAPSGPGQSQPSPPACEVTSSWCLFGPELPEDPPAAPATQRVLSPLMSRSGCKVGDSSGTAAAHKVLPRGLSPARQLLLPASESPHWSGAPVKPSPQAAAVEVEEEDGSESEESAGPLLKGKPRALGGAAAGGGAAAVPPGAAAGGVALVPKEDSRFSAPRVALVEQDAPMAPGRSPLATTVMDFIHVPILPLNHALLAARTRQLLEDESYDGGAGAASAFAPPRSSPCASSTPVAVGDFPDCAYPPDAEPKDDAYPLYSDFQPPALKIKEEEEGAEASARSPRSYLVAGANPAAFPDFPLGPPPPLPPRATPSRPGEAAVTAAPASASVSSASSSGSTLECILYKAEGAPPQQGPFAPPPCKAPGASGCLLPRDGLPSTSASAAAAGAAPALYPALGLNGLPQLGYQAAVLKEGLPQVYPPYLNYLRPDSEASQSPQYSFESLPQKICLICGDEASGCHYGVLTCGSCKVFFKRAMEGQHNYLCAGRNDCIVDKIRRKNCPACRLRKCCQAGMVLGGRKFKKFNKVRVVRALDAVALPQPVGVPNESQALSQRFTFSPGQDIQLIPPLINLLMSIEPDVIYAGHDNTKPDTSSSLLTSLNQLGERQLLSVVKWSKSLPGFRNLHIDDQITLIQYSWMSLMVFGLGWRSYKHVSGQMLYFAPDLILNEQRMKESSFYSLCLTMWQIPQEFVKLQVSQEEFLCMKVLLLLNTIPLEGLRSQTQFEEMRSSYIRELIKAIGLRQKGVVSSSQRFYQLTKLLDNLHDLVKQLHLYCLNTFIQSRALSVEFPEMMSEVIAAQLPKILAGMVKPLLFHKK
Chain of UniProt P34981 (P34981 whole entry, looked up): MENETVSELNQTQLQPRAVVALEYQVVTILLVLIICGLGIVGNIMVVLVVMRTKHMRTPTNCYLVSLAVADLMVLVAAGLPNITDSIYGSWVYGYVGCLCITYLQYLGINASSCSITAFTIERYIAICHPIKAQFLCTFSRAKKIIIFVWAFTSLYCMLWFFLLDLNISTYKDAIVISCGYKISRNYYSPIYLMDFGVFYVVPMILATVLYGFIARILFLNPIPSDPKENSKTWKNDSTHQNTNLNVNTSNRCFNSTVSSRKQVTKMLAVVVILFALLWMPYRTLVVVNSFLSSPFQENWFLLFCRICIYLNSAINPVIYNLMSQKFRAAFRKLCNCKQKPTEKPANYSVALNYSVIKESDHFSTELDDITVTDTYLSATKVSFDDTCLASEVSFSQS

For `CCOC(=O)c1ccc(OCCN2C[C@H](O)[C@@H](O)[C@H](O)[C@H]2CO)cc1`, the Potency [1] was “inactive”.

In the case of `CCCC(CCC)C(=O)O`, the Potency [2] is reported as inconclusive: 22.8 µM [rising, single point].

With `Cc1ccc([N+](=O)[O-])c(N)c1` the Potency [3] was active: 59.6 µM and the Potency [1] was inconclusive: 0.0038 µM [cytotoxic, full curve].

For `CCCCCCCCCC(=O)N(C)C`, the Potency [3] was “inactive” and the Potency [1] was inconclusive: 13.9 µM [rising, full curve].

With `NC(=O)c1ccccc1N` the Potency [1] was “inactive” and the Potency [2] was “inactive”.

For `COC(=O)CCCC(=O)OC`, the Potency [3] was “inactive”, the Potency [1] was inconclusive: 27.3 µM [rising, single point] and the Potency [2] was “inactive”.

In the case of `CC(CCc1ccc2c(c1)OCO2)NN` (stereo not given), the Potency [1] is reported as “inactive”, the Potency [2] is reported as “inactive” and the Potency [4] is reported as “inactive”. For the same compound, the Potency [5] was “inactive”.

With `CC(=O)OCC(=O)NCCCOc1cccc(CN2CCCCC2)c1` the Potency [1] was inconclusive: 33.5 µM [rising, single point] and the Potency [5] was “inactive”.

With `Nc1ccn(C2CO[C@H](CO)O2)c(=O)n1` (stereo not given in full) the Potency [3] was “inactive”, the Potency [6] was inconclusive: 16.5 µM [inhibitor, single point] and the Potency [7] was inconclusive: 19 µM [activator, single point].

In the case of `O=C(O)Cc1ccc(OCCNC[C@H](O)c2ccccc2)cc1`, the activity change, negative = inhibition [3] is reported as inconclusive: -28.5% [at 42.5 µM], the Potency [1] is reported as inconclusive: 33.5 µM [cytotoxic, single point] and the Potency [2] is reported as inconclusive: 33.5 µM [cytotoxic, single point].

With `O=c1cc[nH]c(=O)[nH]1` the Potency [1] was inconclusive: 15.4 µM [cytotoxic, single point].

For `Cc1ccccc1S(N)(=O)=O`, the Potency [1] was inconclusive: 27.3 µM [rising, single point].

For `[O]=[Zr]`, the Potency [1] was “inactive” and the Potency [5] was inconclusive: 5.47 µM [rising, full curve, poor fit].

For `OC[C@H]1O[C@@H]2O[C@H]3[C@H](O)[C@@H](O)[C@@H](O[C@H]4[C@H](O)[C@@H](O)[C@@H](O[C@H]5[C@H](O)[C@@H](O)[C@@H](O[C@H]6[C@H](O)[C@@H](O)[C@@H](O[C@H]7[C@H](O)[C@@H](O)[C@@H](O[C@H]1[C@H](O)[C@H]2O)O[C@@H]7CO)O[C@@H]6CO)O[C@@H]5CO)O[C@@H]4CO)O[C@@H]3CO`, the Potency [3] was active: 22.9 µM and the Potency [5] was “inactive”.

With `CO[Si](C)(C)OC` the Potency [3] was inconclusive: 0.611 µM [falling, single point], the Potency [1] was inconclusive: 0.611 µM [cytotoxic, single point] and the Potency [2] was “inactive”. For the same compound, the Potency [4] was inconclusive: 5.49 µM [cytotoxic, single point] and the activity, negative = inhibition [8] was inconclusive: 2.95%.

For `N#CCCN(CCO)CCO`, the activity change, negative = inhibition [3] was inconclusive: 7.71% and the Potency [9] was inconclusive: 21.9 µM [activator, single point].

In the case of `CCCCOC(=O)C(C)CC` (stereo not given), the Potency [3] is reported as inconclusive: 30.6 µM [falling, full curve, poor fit] and the Potency [1] is reported as inconclusive: 0.386 µM [cytotoxic, partial curve, poor fit].

For `O=C1c2ccccc2C(=O)C1c1ccc(Br)cc1`, the Potency [3] was inconclusive: 33.5 µM [falling, single point], the Potency [1] was “inactive” and the activity, negative = inhibition [8] was inconclusive: 2.77% [at 35.3 µM].

For `CN(N=O)C(=O)N[C@@H]1[C@@H](O)[C@H](O)[C@@H](CO)O[C@@H]1O`, the Potency [3] was inconclusive: 33.5 µM [rising, single point] and the Potency [2] was inconclusive: 6.06 µM [cytotoxic, partial curve].

In the case of `O=C(O)c1cc(=O)[nH]c(=O)[nH]1`, the Potency [3] is reported as inconclusive: 23.7 µM [falling, partial curve] and the Potency [2] is reported as inconclusive: 33.5 µM [cytotoxic, single point].

For `[Na+]`, the activity change, negative = inhibition [3] was inconclusive: 5.71% and the Potency [1] was inconclusive: 24.3 µM [rising, partial curve, poor fit].

In the case of `CN1C(CSCC(F)(F)F)Nc2cc(Cl)c(S(N)(=O)=O)cc2S1(=O)=O` (stereo not given), the Potency [1] is reported as inconclusive: 33.5 µM [rising, single point].

With `COC(=O)c1cccc(C(=O)OC)c1` the Potency [7] was inconclusive: 43.7 µM [activator, single point].

For `Cc1ccc(S(N)(=O)=O)cc1`, the Potency [7] was inconclusive: 43.4 µM [activator, single point].
